# In PubChem BioAssay AID504832 (National Center for Advancing Translational Sciences (NCATS), 2011):
# In all, about 310,000 compounds went through this assay and about 18,000 (5.8%) were called active. The shares of active, inactive and inconclusive entries below differ from those in the screen. The call rests on the fitted dose curve; in most records, active means well fitted inhibition curve with a large enough effect; inconclusive means small, poorly fitted or top-dose-only effect, or another doubt; inactive means no such curve, though single readings can be large or run the other way. Potencies of inconclusive entries are left out as doubtful fits.
# Assay: Primary qHTS for delayed death inhibitors of the malarial parasite plastid, 48 hour incubation
# Settings: P. falciparum luciferase growth in erythrocytes; series mostly up to 28.7 µM; activity change, negative = inhibition: at the top concentration
# How it was run: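 Compounds are pin-transferred into medium, infected erythrocytes (2% hematocrit, 0.1% parasitemia final) are added, and plates sit one parasite generation at 37 C in 5% CO2. Detection reagent is then added and luminescence measured.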
# On the % scale 0 is the no-effect control and ±100 the full control effect; potency means the concentration at half of the fitted maximal effect; tags describe the fitted curve by direction and shape.
SMILES,Potency,"activity change, negative = inhibition"
Cn1c(=O)c2ncn(CC(=O)N=Nc3c(O)[nH]c4ccccc34)c2n(C)c1=O,active: 11.7 µM,–
Cc1cccc(NC(=O)CCNC(=O)c2ccco2)c1C,"inconclusive [inhibitor, single point]",–
CCOC(=O)C1=C(CC)Nc2ccccc2N=C1NC(=O)c1ccc(C)c(S(=O)(=O)N2CCOCC2)c1,"inconclusive [inhibitor, partial curve, poor fit]",–
O=S(=O)(c1ccc(OC(F)(F)F)cc1)N1CCC(O)(c2cccc(C(F)(F)F)c2)CC1,"inconclusive [inhibitor, partial curve]",–
O=c1nc2sc3ccccc3n2c(=O)n1-c1cccc(Cl)c1,–,inactive: 92.2%
NC(=O)c1ccccc1OCC(=O)Nc1ccc2c(c1)OCCO2,–,inactive: 108%
CC1=C(C(=O)OCC2CCCO2)C(c2cccc(O)c2)NC(=O)N1 (configuration not stated),–,inactive: 13.9%
COc1cc(N2C(=O)C=CC2=O)c(OC)cc1Cl,"inconclusive [inhibitor, single point]",–
COc1ccc2nc(SCC(=O)N3CCN(c4ccc(F)cc4)CC3)c(C#N)cc2c1,"inconclusive [inhibitor, single point]",–
Cc1ccc(C)c(NC(=O)CSc2nc(=O)n(CCN3CCOCC3)c3c2CCCC3)c1,"inconclusive [inhibitor, single point]",–
COc1ccc(-c2noc(-c3ccoc3C)n2)cc1OC,–,inactive: -3.98%
N#CC(C#N)=C(N)CSc1cccc[n+]1[O-],active: 5.22 µM,–
CN(CC(=O)Nc1ccccc1C(F)(F)F)C(=O)C1CCN(S(=O)(=O)c2ccc3c(c2)OCCO3)CC1,"inconclusive [inhibitor, partial curve, poor fit]",–
O=[N+]([O-])c1ccc(N=Cc2sc3ccccc3c2O)cc1,–,inactive: 10.3%
Cc1ccccc1-c1nc(-c2ccc(NC(=O)c3ccc(Br)o3)cc2)no1,–,inactive: 102%
O=C(Nc1ccc(O)c2c(=O)cc(-c3ccccc3Cl)oc12)c1cccs1,–,inactive: -23%
COc1cc(C2SCC(=O)N2Cc2ccccc2)cc(OC)c1OC (configuration not stated),–,inactive: -0.527%
O=C(CSc1nc2ccccc2n1Cc1ccccc1Cl)N/N=C/c1ccccc1C(=O)O,"inconclusive [inhibitor, single point]",–
COc1cc(NC(=O)c2ccc(C(C)(C)C)cc2)c(OC)cc1NC(=O)CN1CCCCC1,active: 6.57 µM,–
CS(=O)(=O)Nc1ccc(C(=O)CSc2nnc(C3CC3)n2C2CC2)cc1,"inconclusive [inhibitor, single point]",–
CC1(C)CC(=O)C2=C(C1)NC(SCC(N)=O)=C(C#N)C21CCCCC1,"inconclusive [inhibitor, single point]",–
C=CCn1c(Oc2cc(C)ccc2C)nc2c1c(=O)n(C)c(=O)n2C,–,inactive: -10.4%
Cc1ccc(Oc2ncccc2NC(=O)CC2(CC(=O)O)CCCC2)c2c1CCC2,"inconclusive [inhibitor, single point]",–

SMILES,Potency,"activity change, negative = inhibition"
O=C(N/N=C\c1ccc(COc2ccc([N+](=O)[O-])cc2)o1)c1ccc(Cl)cc1,–,inactive: -5.54%
Cc1ccc(NC(=O)COc2ccccc2)cc1Cl,"inconclusive [inhibitor, single point]",–
COc1cccc2cc(-c3cc(=O)oc4ccc(OCC(C)=O)cc34)oc12,"inconclusive [inhibitor, single point]",–
CC(=O)N1c2ccc(S(=O)(=O)NCC3CCC(C(=O)N4CC(C)CC(C)C4)CC3)cc2CC1C (configuration not stated),"inconclusive [inhibitor, single point]",–
CC1CCCN(S(=O)(=O)c2ccc(C(=O)Nc3nnc(-c4ccccc4Cl)o3)cc2)C1 (configuration not stated),"inconclusive [inhibitor, full curve, poor fit]",–
CCCCOc1ccc(C(=O)NCc2ccccn2)cc1,–,inactive: -0.549%
O=C(NC1CCCCC1)C(c1ccc2ncccc2c1)N(Cc1cccs1)C(=O)c1cccs1 (configuration not stated),active: 11.7 µM,–
OC1(c2cccs2)CN(c2ccc(Cl)cc2)C2=[N+]1CCCC2 (configuration not stated),"inconclusive [inhibitor, partial curve, poor fit]",–
Cc1ccc(N2C(=O)C3C4C=CC(CNC(=S)N5CCN(c6ccccn6)CC5)(O4)C3C2=O)cc1 (configuration not stated),"inconclusive [inhibitor, single point]",–
CCOC(=O)c1sc(C)c2c1NC(C)(c1cccs1)NC2=O (configuration not stated),"inconclusive [inhibitor, partial curve]",–
CN(C)c1nc(NCc2ccccc2)nc(N/N=C/c2ccc(Cl)cc2Cl)n1,"inconclusive [inhibitor, full curve]",–
O=C(Nc1cc(S(=O)(=O)N2CCOCC2)ccc1N1CCOCC1)c1cc(=O)[nH]c2ccccc12,–,inactive: 10.7%
O=C(Nc1cccc(C(F)(F)F)c1)c1cccnc1NCCc1ccccc1,"inconclusive [inhibitor, full curve]",–
COc1ccc(C(CNC(=O)c2cccc(S(=O)(=O)Nc3ccccc3OC)c2)N2CCCC2)cc1 (configuration not stated),"inconclusive [inhibitor, single point]",–
CCCNC(=O)CCc1cc(C(C)(C)C)c(O)c(C(C)(C)C)c1,"inconclusive [inhibitor, single point]",–
CCN(CC)CCCN(C(=O)c1ccco1)c1nc(-c2ccc(Cl)cc2)cs1,active: 1.47 µM,–
O=C(CNC(=O)[C@@H]1Cc2ccccc2CN1)NC1CCCC1,"inconclusive [inhibitor, single point]",–
CCC(=O)Nc1nc2nc(C)cc(=O)n2[nH]1,"inconclusive [inhibitor, partial curve, poor fit]",–
COc1ccc(CCNC(=O)CCN2C(=O)COc3ccc(C)cc32)cc1OC,–,inactive: 7.46%
CCOC(=O)C1CCN(c2cc3c(cc2NC(=O)c2cc(OC)ccc2Br)n(C)c(=O)n3C)CC1,"inconclusive [inhibitor, full curve, poor fit]",–
Cc1cc(Nc2ccc3c(c2)OCCO3)c2ccccc2n1,"inconclusive [inhibitor, single point]",–
NC(=O)C1CCN(c2nc(-c3ccc(C(F)(F)F)cc3)cs2)CC1,"inconclusive [inhibitor, single point]",–
Cc1nc(C(C)NC(=O)c2ccc(OC3CCN(Cc4ccccn4)CC3)cc2)c(C)s1 (configuration not stated),"inconclusive [inhibitor, partial curve]",–

SMILES,Potency,"activity change, negative = inhibition"
CCN(CC)C(=O)c1ccc(NC(=O)COc2ccc(-c3nn(C)c(=O)c4ccccc34)cc2)cc1,active: 13.1 µM,–
Cc1cccc(N(C(=O)c2ccco2)C(C(=O)NC2CCCC2)c2ccco2)c1C (configuration not stated),"inconclusive [inhibitor, partial curve, poor fit]",–
CCOC(=O)C1=C(C)N=C2SCCC(=O)N2[C@@H]1/C=C/c1ccccc1,–,inactive: -12.7%
CCC(C(=O)Nc1ccc(C(C)C)cc1)c1ccccc1 (configuration not stated),"inconclusive [inhibitor, single point]",–
O=C(N/C=N/OCc1ccc(Cl)cc1Cl)NOCc1c(Cl)cccc1Cl,"inconclusive [inhibitor, single point]",–
CNC(=S)N1CCn2cccc2C1c1cc(OC)c(OC)c(OC)c1 (configuration not stated),"inconclusive [inhibitor, full curve, poor fit]",–
O=Cc1cccn1-c1cccc([N+](=O)[O-])c1,–,inactive: 77.9%
COCC1CCCCN1C(=O)c1ccc(OC2CCN(CCc3ccccc3)CC2)cc1 (configuration not stated),"inconclusive [inhibitor, partial curve]",–
O=C(CSc1nnc(SCc2ccccc2)s1)N/N=C/c1ccc(C(=O)O)cc1,–,inactive: 71%
O=C(N/N=C/c1ccc(N2CCOCC2)c([N+](=O)[O-])c1)c1ccc(F)cc1,"inconclusive [inhibitor, partial curve]",–
Cc1ccc(S(=O)(=O)CCC(=O)Nc2ccccc2Cl)cc1,–,inactive: 7.81%
C#CCOCCOCCOCCNc1nc(N2CCN(C(=O)CCCCCCCCCCNC(=O)[C@H](CO)n3cc(CCCSC)nn3)CC2)nc(N2CCN(C(=O)CCCCCCCCCCNC(=O)[C@H](CO)n3cc(CCCSC)nn3)CC2)n1,active: 0.294 µM,–
COc1cccc(NC(=O)CSc2ccc(-c3sc(C)nc3C)nn2)c1,"inconclusive [inhibitor, single point]",–
COc1ccc(-n2nc(C(=O)NCC(=O)NC3CCCC(C)C3C)c3ccccc3c2=O)cc1 (configuration not stated),"inconclusive [inhibitor, partial curve]",–
CCCc1[nH]nc2c1C(c1ccc(OC)c(CSC3=NCCS3)c1)C(C#N)=C(N)O2 (configuration not stated),"inconclusive [inhibitor, partial curve, poor fit]",–
COCC(C)n1c(SCc2nc(N)nc(Nc3ccccc3C)n2)nc2ccccc2c1=O (configuration not stated),"inconclusive [inhibitor, single point]",–
O=C(C(c1ccccc1)c1ccccc1)N(Cc1ccco1)C1CCS(=O)(=O)C1 (configuration not stated),"inconclusive [inhibitor, single point]",–
CC1(C)Cc2c(sc(NC(=O)C(=O)NCC3CCCO3)c2C(N)=O)CO1 (configuration not stated),–,inactive: -23.7%
Oc1ccc(/C=N/NC(=S)Nc2cccnc2)c(O)c1O,"inconclusive [inhibitor, single point]",–
Cc1ccccc1CCN(C(=O)c1csnn1)C(C(=O)NC1CCCC1)c1ccncc1 (configuration not stated),"inconclusive [inhibitor, single point]",–
CCCCn1c(N)c(N(CCOC)C(=O)COC(=O)c2cc(CCC)c(C)s2)c(=O)[nH]c1=O,"inconclusive [inhibitor, single point]",–
